Data from the supplement of paper PMC12217912.
The other results are listed elsewhere or left out. The full chains were built here from the parent and the listed change. Inactive controls read about 0.05.

B1: TEV protease; numbered along this chain (parent)
chain: MGESLFKGPRDYNPISSSICHLTNESDGHTTSLYGIGFGPFIITNKHLFRRNNGTLVVQSLHGVFKVKDTTTLQQHLVDGRDMIIIRMPKDFPPFPQKLKFREPQREERICLVTTNFQTKSMSSMVSDTSCTFPSGDGIFWKHWIQTKDGQCGSPLVSTRDGFIVGIHSASNFTNTNNYFTSVPKNFMELLTNQEAQQWVSGWRLNADSVLWGGHKVFMVKPEEPFQPVKEATQL

Variants of: B1
Experiment: raw area under fraction-flipped curve 0-4 h after induction (AUC4h, not background-subtracted), DNA-recorder readout of cleavage of the substrate (dimensionless); higher = more cleavage of the substrate by the protease variant
Conditions: temperature: 34 °C; time window: 0-4 h after rhamnose induction
Protocol: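 In vivo DNA recorder in E. coli TOP10(DE3) ΔrhaA at 34 °C. Each TEVp single-site mutant (parent TEVp 0) is paired with a single-site variant of the 7-mer TEVs (canonical ENLYFQ|S). The substrate sits between flexible linkers in a Bxb1-sfGFP-TEVs-SsrA fusion, so cleavage stabilises Bxb1 and speeds flipping of a recombination array, read by NGS. The value is the raw area under the fraction-flipped curve over 0-4 h after rhamnose induction (AUC4h), with ≥20 reads per time point. It is not background-subtracted; inactive controls average about 0.047.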
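Further: Bxb1 expression induced with 0.2% (w/v) L-rhamnose at OD600 near 0.5, cultures sampled hourly, flipped fraction per protease–substrate barcode pair counted by paired-end Illumina sequencing.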

Row | Variant | area with substrate ENAYFQS | area with substrate ENDYFQS | area with substrate ENEYFQS | area with substrate ENGYFQS | area with substrate ENHYFQS | area with substrate ENIYFQS | area with substrate ENMYFQS | area with substrate ENNYFQS | area with substrate ENPYFQS | area with substrate ENQYFQS | area with substrate ENRYFQS | area with substrate ENSYFQS | area with substrate ENVYFQS | area with substrate ENWYFQS | area with substrate ENCYFQS | area with substrate ENTYFQS | area with substrate ENYYFQS | area with substrate ENFYFQS | area with substrate ENKYFQS
1 | MGESLFKGPRDYNPISSSICHLTNESDGHTTSLYGIGFGPFIITNKHLFRRNNGTLVVQSLHGVFKVKDTTTLQQHLVDGRDMIIIRMPKDFPPFPQKLKFREPQREERICLVTTNFQTKMMSSMVSDTSCTFPSGDGIFWKHWIQTKDGQCGSPLVSTRDGFIVGIHSASNFTNTNNYFTSVPKNFMELLTNQEAQQWVSGWRLNADSVLWGGHKVFMVKPEEPFQPVKEATQL [S121M] | 0.0571 | 0.0581 | 0.0567 | 0.0521 | 0.0599 | 0.0985 | 0.0891 | 0.0657 | 0.063 | 0.0632 | 0.064 | 0.0579 | 0.065 | 0.0514 | – | – | – | – | –
2 | MGESLFKGPRDYNPISSSICHLTNESDGHTTSLYGIGFGPFIITNKHLFRRNNGTLVVQSLHGVFKVKDTTTLQQHLVDGRDMIIIRMPKDFPPFPQKLKFREPQREERICLVTTNFQTKWMSSMVSDTSCTFPSGDGIFWKHWIQTKDGQCGSPLVSTRDGFIVGIHSASNFTNTNNYFTSVPKNFMELLTNQEAQQWVSGWRLNADSVLWGGHKVFMVKPEEPFQPVKEATQL [S121W] | 0.057 | 0.0571 | 0.0581 | 0.0494 | 0.0558 | – | 0.0576 | 0.0598 | 0.043 | 0.0526 | – | 0.0358 | 0.078 | – | 0.0654 | 0.064 | 0.0536 | – | –
3 | MGESLFKGPRDYNPISSSICHLTNESDGHTTSLYGIGFGPFIITNKHLFRRNNGTLVVQSLHGVFKVKDTTTLQQHLVDGRDMIIIRMPKDFPPFPQKLKFREPQREERICLVTTNFQTKSMDSMVSDTSCTFPSGDGIFWKHWIQTKDGQCGSPLVSTRDGFIVGIHSASNFTNTNNYFTSVPKNFMELLTNQEAQQWVSGWRLNADSVLWGGHKVFMVKPEEPFQPVKEATQL [S123D] | 0.0612 | 0.063 | 0.0672 | – | – | 0.108 | – | 0.0614 | – | 0.0626 | – | 0.0433 | 0.0773 | – | 0.0546 | 0.069 | – | 0.0675 | 0.0714
4 | MGESLFKGPRDYNPISSSICHLTNESDGHTTSLYGIGFGPFIITNKHLFRRNNGTLVVQSLHGVFKVKDTTTLQQHLVDGRDMIIIRMPKDFPPFPQKLKFREPQREERICLVTTNFQTKSMSPMVSDTSCTFPSGDGIFWKHWIQTKDGQCGSPLVSTRDGFIVGIHSASNFTNTNNYFTSVPKNFMELLTNQEAQQWVSGWRLNADSVLWGGHKVFMVKPEEPFQPVKEATQL [S124P] | 0.0384 | 0.0652 | 0.0674 | – | 0.0638 | – | – | 0.0604 | 0.0572 | 0.0584 | 0.0613 | 0.0753 | 0.072 | – | – | 0.0611 | – | – | –
5 | MGESLFKGPRDYNPISSSICHLTNESDGHTTSLYGIGFGPFIITNKHLFRRNNGTLVVQSLHGVFKVKDTTTLQQHLVDGRDMIIIRMPKDFPPFPQKLKFREPQREERICLVTTNFQTKSMSRMVSDTSCTFPSGDGIFWKHWIQTKDGQCGSPLVSTRDGFIVGIHSASNFTNTNNYFTSVPKNFMELLTNQEAQQWVSGWRLNADSVLWGGHKVFMVKPEEPFQPVKEATQL [S124R] | 0.0565 | 0.0564 | 0.0433 | 0.0649 | 0.0511 | 0.0994 | – | – | 0.0657 | 0.0626 | 0.0312 | – | 0.0884 | – | 0.0585 | 0.0944 | 0.0558 | 0.0664 | 0.0639
6 | MGESLFKGPRDYNPISSSICHLTNESDGHTTSLYGIGFGPFIITNKHLFRRNNGTLVVQSLHGVFKVKDTTTLQQHLVDGRDMIIIRMPKDFPPFPQKLKFREPQREERICLVTTNFQTKSMSVMVSDTSCTFPSGDGIFWKHWIQTKDGQCGSPLVSTRDGFIVGIHSASNFTNTNNYFTSVPKNFMELLTNQEAQQWVSGWRLNADSVLWGGHKVFMVKPEEPFQPVKEATQL [S124V] | 0.0698 | 0.0721 | 0.054 | 0.0627 | 0.0501 | – | 0.0919 | 0.0601 | 0.0572 | 0.0628 | 0.0706 | 0.0652 | 0.051 | – | 0.0514 | – | 0.0502 | 0.0789 | 0.0714
7 | MGESLFKGPRDYNPISSSICHLTNESDGHTTSLYGIGFGPFIITNKHLFRRNNGTLVVQSLHGVFKVKDTTTLQQHLVDGRDMIIIRMPKDFPPFPQKLKFREPQREERICLVTTNFQTKSMSSMASDTSCTFPSGDGIFWKHWIQTKDGQCGSPLVSTRDGFIVGIHSASNFTNTNNYFTSVPKNFMELLTNQEAQQWVSGWRLNADSVLWGGHKVFMVKPEEPFQPVKEATQL [V126A] | 0.0581 | 0.0646 | 0.0609 | 0.037 | 0.0718 | 0.146 | – | 0.054 | 0.0584 | 0.0595 | – | 0.0674 | 0.0781 | 0.0513 | 0.126 | 0.0561 | 0.069 | 0.0677 | 0.058
8 | MGESLFKGPRDYNPISSSICHLTNESDGHTTSLYGIGFGPFIITNKHLFRRNNGTLVVQSLHGVFKVKDTTTLQQHLVDGRDMIIIRMPKDFPPFPQKLKFREPQREERICLVTTNFQTKSMSSMYSDTSCTFPSGDGIFWKHWIQTKDGQCGSPLVSTRDGFIVGIHSASNFTNTNNYFTSVPKNFMELLTNQEAQQWVSGWRLNADSVLWGGHKVFMVKPEEPFQPVKEATQL [V126Y] | 0.0553 | 0.0695 | 0.0966 | 0.0707 | – | 0.122 | 0.0735 | – | – | 0.0598 | 0.0801 | 0.0601 | 0.075 | 0.0555 | 0.0582 | 0.0709 | 0.0524 | 0.0608 | 0.0637
9 | MGESLFKGPRDYNPISSSICHLTNESDGHTTSLYGIGFGPFIITNKHLFRRNNGTLVVQSLHGVFKVKDTTTLQQHLVDGRDMIIIRMPKDFPPFPQKLKFREPQREERICLVTTNFQTKSMSSMVGDTSCTFPSGDGIFWKHWIQTKDGQCGSPLVSTRDGFIVGIHSASNFTNTNNYFTSVPKNFMELLTNQEAQQWVSGWRLNADSVLWGGHKVFMVKPEEPFQPVKEATQL [S127G] | 0.0653 | 0.0605 | 0.0677 | 0.0576 | 0.0609 | – | – | 0.0423 | 0.0733 | 0.0669 | 0.0311 | 0.0616 | 0.0664 | 0.0556 | 0.0646 | 0.0615 | 0.0569 | 0.053 | 0.0495
